The values below come from PubChem BioAssay AID1745853 (National Center for Advancing Translational Sciences (NCATS), 2022).

Several values for one entry are separate records, joined by “and”; a condition that tells them apart may be missing. Identical values can stand only once. This is one part of the list. Shown are side measurements of this screen, not its main read-out; they come without a call.

Holding throughout (test): Primary Screen for Target Class Profiling of Small Molecule Inhibitors of Methyltransferases
Experiment [1] has as its target Glycine N-methyltransferase (Homo sapiens) (UniProt Q14749). Particulars: purified enzyme, MTase-Glo SAH luminescence; measured here: GNMT inhibition; at 40 µM; stronger effect = lower value. The essentials:
(§1)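 Each enzyme was assayed with SAM and its substrate. SAH formation detected by MTase-Glo luminescence; single-point 40 uM screen[…].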

Experiment [2] addresses Guanidinoacetate N-methyltransferase (Homo sapiens) (UniProt Q14353). Particulars: purified enzyme, MTase-Glo SAH luminescence; measured here: GAMT inhibition; at 40 µM; stronger effect = lower value. A digest of the protocol:
as §1

For experiment [3], the target named is Histamine N-methyltransferase (Homo sapiens) (UniProt P50135). The conditions noted are these: purified enzyme, MTase-Glo SAH luminescence; measured here: HNMT inhibition; at 40 µM; stronger effect = lower value. The essentials:
as §1

The target of experiment [4] is Nicotinamide N-methyltransferase (Homo sapiens) (UniProt P40261). The conditions noted are these: purified enzyme, MTase-Glo SAH luminescence; measured here: NNMT inhibition; at 40 µM; stronger effect = lower value. A digest of the protocol:
as §1

Experiment [5] deals with Phenylethanolamine N-methyltransferase (Homo sapiens) (UniProt P11086). The conditions noted are these: purified enzyme, MTase-Glo SAH luminescence; measured here: PNMT inhibition; at 40 µM; stronger effect = lower value. A digest of the protocol: as §1
On the % scale 0 is the no-effect control and ±100 the full control effect.

As for `C=C1CCC2C(C)(C)CCC[C@]2(C)[C@H]1C/C=C(\CO)C(=O)C(=O)O` (some centres not stated), the activity change, negative = inhibition is -3.13% in experiment [1]; -14.9% in experiment [2]; 3.1% in experiment [3]; -30% in experiment [4]; -13.8% in experiment [5].

With `CCOC(=O)c1cc2n(n1)CC(C)(C(=O)NCCCOC)N(c1cc(C)ccc1C)C2=O` (configuration not stated), the activity change, negative = inhibition in experiment [1] was found to be 8.43%; in experiment [2], 2.05%; in experiment [3] it was 13.1%; in experiment [4] it was 9.51%; in experiment [5], 7.24%.

In the case of `O=C(Cn1nc2n(Cc3ccc(F)cc3)c(=O)c3ccccc3n2c1=O)NCc1ccccc1Cl`, the activity change, negative = inhibition was 1.88% in experiment [1]; 3.56% in experiment [2]; -1.7% in experiment [3]; 0.562% in experiment [4]; 0.967% in experiment [5].

For `CC(C)[S+](=O)([O-])N1CCN(c2ccc(Cl)nn2)C(=O)C1`, the activity change, negative = inhibition was -7.32% in experiment [1]; -7.94% in experiment [2]; -3.95% in experiment [3]; -14.4% in experiment [4]; 7.8% in experiment [5].

`CCc1ccc(-c2cc3n(n2)CC(C)(C(=O)NC2CCCCC2)N(C2CCCC2)C3=O)cc1` (configuration not stated): the activity change, negative = inhibition in experiment [1] was -0.868%; in experiment [2], 2.48%; in experiment [3], -0.939%; in experiment [4] it was -4.38%; in experiment [5], -3.7%.

With `O=C(Cn1c(=O)oc2cc(S(=O)(=O)N3CCCCC3)ccc21)NCc1ccc(Cl)cc1`, the activity change, negative = inhibition in experiment [1] is -3.74%; in experiment [2], -31% and 2.54%; in experiment [3] it was 0.34%; in experiment [4] it was -33% and -25.1%; in experiment [5] it was -8% and -5.17%.

On to `CC(C)C[C@H](NC(=O)[C@@H]1O[C@H]1C(=O)O)C(=O)NCCCCN=C(N)N`, for which the values for the activity change, negative = inhibition in experiment [1] and in experiment [3] were -4.91% and -4.28%, respectively.

Turning to `CCOCc1cc(OC)c(-c2ccc(C[C@H](NC(=O)c3c(F)cccc3F)C(=O)O)cc2)c(OC)c1`, the activity change, negative = inhibition in experiment [1] was 0.445%; in experiment [2], -7.39%; in experiment [3], 12.1%; in experiment [4], -13.7%; in experiment [5] it was 2.54%.

On to `COc1cccc(CN2C(=O)c3cc4sccc4n3CC2(C)C(=O)NC2CCC(C)CC2)c1OC` (configuration not stated), for which the activity change, negative = inhibition was -2.4% in experiment [1]; 4.8% in experiment [2]; 1.53% in experiment [3]; -10.5% in experiment [4]; -4.72% in experiment [5].

`CC1(C(=O)NC2CCCCC2)Cn2c(ccc2-c2ccccc2)C(=O)N1CCCN1CCCC1=O` (configuration not stated): the activity change, negative = inhibition in experiment [1] is -2.18%; in experiment [2] it was 4.96%; in experiment [3], 1.53%; in experiment [4] it was 3.32%; in experiment [5], 1.93%.

In the case of `COc1ccc(-c2cc3n(n2)CC(C)(C(=O)NCc2ccccc2OC)N(c2ccc(F)cc2C)C3=O)cc1` (configuration not stated), the activity change, negative = inhibition in experiment [1] is -0.729%; in experiment [2], -0.144%; in experiment [3], 2.18%; in experiment [4], -9.66%; in experiment [5], -2.52%.

Take `O=C(Cc1ccccn1)NCCNC(=O)c1ccc(-c2cccc(C(F)(F)F)c2)cc1`: the activity change, negative = inhibition in experiment [1] was -5.73%; in experiment [2] it was -4.95%; in experiment [3], -1.6%; in experiment [4] it was -7.52%; in experiment [5] it was -0.908%.

In the case of `CC(C)CNC(=O)c1ccc2c(=O)n(CC(C)C)c3nn(Cc4c(F)cccc4Cl)c(=O)n3c2c1`, the activity change, negative = inhibition in experiment [1] stood at 5.83%; in experiment [2] it was 0.302%; in experiment [3], 7.15%; in experiment [4], 1.33%; in experiment [5], 3.62%.

With `CC1CCN(S(=O)(=O)c2ccc3c(ccn3CCC(=O)NCc3ccc(N(C)C)cc3)c2)CC1`, the activity change, negative = inhibition in experiment [1] was -1.12%; in experiment [2] it was 6.91%; in experiment [3], -4.4%; in experiment [4], -3.49%; in experiment [5], 0.587%.

For `c1cc2c(cc1N1CCC(N3CCC4(CCNCC4)C3)CC1)OCO2`, the activity change, negative = inhibition was -3.99% in experiment [1]; -3.36% in experiment [2]; -12.6% in experiment [3]; -5.84% in experiment [4]; -6.23% in experiment [5].

As to `O=S(=O)(NCCn1c(-c2ccccc2)nc2ccccc21)c1ccccc1Cl`, the activity change, negative = inhibition is -8.16% in experiment [1]; -0.876% in experiment [2]; -6.19% in experiment [3]; -13.8% in experiment [4]; -3.9% in experiment [5].

Turning to `O=C(NC1CCCC1)N1Cc2c(sc3c2CCCC3)-n2cccc2C1c1ccc(F)cc1` (configuration not stated), the activity change, negative = inhibition in experiment [1] was -4.64%; in experiment [2], 0%; in experiment [3] it was -2.36%; in experiment [4], -10.3%; in experiment [5] it was 0.473%.

As to `O=C(Cc1ccccc1F)Nc1cnc(-c2cccnc2)nc1`, the activity change, negative = inhibition in experiment [1] is -3.19%; in experiment [2] it was 1.71%; in experiment [3], 0.085%; in experiment [4], 5.59%; in experiment [5], -9.71%.

On to `COc1c(F)cccc1CN1CCOc2cc([S+](N)(=O)[O-])ccc2C1`, for which the activity change, negative = inhibition is -6.91% in experiment [1]; -10.9% in experiment [2]; -5.22% in experiment [3]; -27.6% in experiment [4]; -10.7% in experiment [5].

Consider `CCC(C)NC(=O)c1ccc2c(=O)n(C)c3nnc(SCC(=O)Nc4cccc(F)c4)n3c2c1` (configuration not stated), for which the activity change, negative = inhibition was -2.21% in experiment [1]; 0% in experiment [2]; 6.78% in experiment [3]; -12.4% in experiment [4]; -2.73% in experiment [5].

As to `COc1ccc(C(C(=O)O)N2CCN(Cc3csc(C)n3)CC2)cc1C` (configuration not stated), the activity change, negative = inhibition in experiment [1] is -2.09%; in experiment [2] it was 0.459%; in experiment [3] it was 1.44%; in experiment [4] it was 1.36%; in experiment [5] it was 5.49%.

As for `O=C(NC1CCCCC1)[C@@H]1Cc2nc[nH]c2CN1Cc1ccc(Cl)cc1`, the activity change, negative = inhibition is -5.83% in experiment [1]; -3.14% in experiment [2]; -3.12% in experiment [3]; -12.4% in experiment [4]; -0.401% in experiment [5].

With `CCCCS(=O)(=O)N1CCCC2(C1)Nc1cccnc1NC2=NCc1ccccc1` (configuration not stated), the activity change, negative = inhibition was -10.1% in experiment [1]; -7.06% in experiment [2]; -4.73% in experiment [3]; -12.2% in experiment [4]; -10.9% in experiment [5].

With `CCCn1c(=O)c2ccc(C(=O)NC(C)C)cc2n2c(SCC(=O)Nc3cccc(OC)c3)nnc12`, the activity change, negative = inhibition in experiment [1] is 0.637%; in experiment [2] it was -4.9%; in experiment [3], 5.42%; in experiment [4], -6.14%; in experiment [5], -6.25%.

With `CCN1c2cc(C(=O)Nc3cccc(C(F)(F)F)c3)ccc2C(=O)N2CCCCC21` (configuration not stated), the activity change, negative = inhibition in experiment [1] was -22.9%; in experiment [2], -4.49%; in experiment [3] it was -18.4%; in experiment [4] it was -8.71%; in experiment [5], -10.1%.

On to `CCCn1c(=O)c2ccc(C(=O)NCC(C)C)cc2n2c(SCC(N)=O)nnc12`, for which the activity change, negative = inhibition in experiment [1] is 8.29%; in experiment [2], 0%; in experiment [3], 7.29%; in experiment [4], 12.2%; in experiment [5], 9.47%.

On to `COc1cccc(C2c3cccn3-c3sc4c(c3CN2C(=O)Nc2ccc(C)cc2)CCCC4)c1` (configuration not stated), for which the activity change, negative = inhibition in experiment [1] is 0.404%; in experiment [2], 0%; in experiment [3], -2.22%; in experiment [4], -2.6%; in experiment [5], 4.35%.

As for `Cc1ccc2c(c1)N(CCCC(=O)N1CCC(C)(c3noc(C4CC4)n3)CC1)C(=O)CO2`, the activity change, negative = inhibition in experiment [1] was -7.12%; in experiment [2], -4.51%; in experiment [3] it was -2.83%; in experiment [4], -13.5%; in experiment [5], -4.87%.

For the compound `CC(=O)N1CCC(N2C[C@H](O)C[C@H]2c2nc(CS(=O)(=O)c3ccc(C)cc3)no2)CC1`, the activity change, negative = inhibition in experiment [1] was -5.11%; in experiment [2] it was -6.95%; in experiment [3], -3.09%; in experiment [4] it was -8.32%; in experiment [5] it was -5.33%.

Turning to `CCC(C)NC(=O)c1ccc2c(=O)n(C(C)C)c3nn(Cc4ccc(C)cc4)c(=O)n3c2c1` (configuration not stated), the activity change, negative = inhibition in experiment [1] came to 1.85%; in experiment [2] it was 0%; in experiment [3], 3.6%; in experiment [4], 1.64%; in experiment [5], 1.28%.

Regarding `CCOc1ccc(-c2cc3n(n2)CC(C)(C(=O)NCCC(C)C)N(c2ccccc2CC)C3=O)cc1` (configuration not stated), the activity change, negative = inhibition in experiment [1] is 2.19%; in experiment [2], 4.34%; in experiment [3] it was -0.411%; in experiment [4], 2.92%; in experiment [5], -4.33%.

As for `O=C(O)c1cccc(CC2CCN(C(=O)CCC(F)(F)F)C2)c1` (configuration not stated), the activity change, negative = inhibition in experiment [1] is -5.37%; in experiment [2] it was -5.59%; in experiment [3], -3.45%; in experiment [4], -6.46%; in experiment [5], -6.37%.

On to `CC1(C(=O)NC2CCCCCC2)Cn2c(cc3occc32)C(=O)N1Cc1ccc2c(c1)OCO2` (configuration not stated), for which the activity change, negative = inhibition in experiment [1] was 3.13%; in experiment [2], -38.7%; in experiment [3], 8.37%; in experiment [4], -6.19%; in experiment [5] it was 0.764%.

As for `O=C(N[C@@H]1CN(C(=O)Nc2ccccc2)CCC[C@H]1O)c1ccc(O)cc1`, the activity change, negative = inhibition in experiment [1] was -7.01%; in experiment [2], -10.9%; in experiment [3], -5.76%; in experiment [4], -17.3%; in experiment [5], -6.93%.

In the case of `Cc1ccc(NC(=O)N2Cc3c(sc4c3CCCC4)-n3cccc3C2c2cc(F)cc(F)c2)cc1` (configuration not stated), the activity change, negative = inhibition in experiment [1] worked out at 0.167%; in experiment [2], 0%; in experiment [3] it was 4.6%; in experiment [4], 0.636%; in experiment [5], 3.67%.

As to `CC(CCc1ccc(O)cc1)NCCc1ccc(O)c(O)c1` (configuration not stated), the activity change, negative = inhibition was -10.4% in experiment [1]; 10.3% in experiment [2]; -25.4% in experiment [3]; -3.87% in experiment [4]; 4.24% in experiment [5].

Regarding `O=C(CC1CCCC1)N1CC(c2nc(CCOCc3ccccc3)no2)C1`, the activity change, negative = inhibition is -0.931% in experiment [1]; 2.32% in experiment [2]; 1.76% in experiment [3]; -10.4% in experiment [4]; 14.1% in experiment [5].

With `Cc1nc2c3ccccc3n3c(CCCC(=O)NC4CCN(Cc5ccccc5)CC4)nnc3n2n1`, the activity change, negative = inhibition is -3.14% in experiment [1]; 4.61% in experiment [2]; -11.9% in experiment [3]; 10.4% in experiment [4]; -0.922% in experiment [5].
